Laboratory results from patent US20260049151A1 (SHENGHE CHINA BIOPHARMACEUTICAL, published 2026).
Values belong to the binder of their own block, whether it stands above or below them.

What was measured:
Human 4-1BB His = biological target: T1, Human 4-1BB His (human, UniProt Q07011 24-186); experiment: ELISA: Human 4-1BB His coated (0.2 ug/mL), antibody titrated, goat anti-human IgG detection (Example 13)
T1 construct: Bought protein; lots 198-2146F1-W6 and 2407c-214FF1-YC; also called human 4-1BB protein; 4-1BB protein; not shown: His tag
Method: (§1) It was blocked with 3% skim milk powder at 300 μL/well, and incubated at 37° C. for 1 h. The blocking solution was poured off, washed 4 times with a plate washer, and patted dry on a flat paper. Negative control and positive control were set up. […] The liquid in the well was discarded, washed 4 times with a plate washer, and patted dry on a flat paper. […] It was washed 6 times with a plate washer, and patted dry on a flat paper. TMB color developing solution was added at 100 μL/well, and wrapped with aluminum foil. Color development was performed at 37° C. in the dark for 8 min. Termination solution 1M HCl was added to terminate the color development reaction at 100 μL/well. Readings were taken at 450 nm on an ELISA reader.

Human-TNFR2-His = biological target: T2, Human-TNFR2-His (human, UniProt P20333 23-257); experiment: ELISA: Human-TNFR2-His coated (0.1 ug/mL), antibody titrated, goat anti-human IgG Fc detection (Example 12)
T2 construct: Bought protein; also called human TNFR2 protein; TNFR2 protein; not shown: His tag
T2 sequence (looked up): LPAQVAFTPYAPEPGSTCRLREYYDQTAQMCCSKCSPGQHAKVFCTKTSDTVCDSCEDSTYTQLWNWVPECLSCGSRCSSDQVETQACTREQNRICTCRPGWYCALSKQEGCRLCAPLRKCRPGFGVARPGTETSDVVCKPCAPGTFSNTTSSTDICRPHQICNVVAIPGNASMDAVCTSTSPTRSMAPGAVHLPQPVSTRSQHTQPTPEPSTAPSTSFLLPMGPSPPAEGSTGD
Method: as §1, with “Termination solution 1M HCl was added to terminate the color development reaction at 100 μL/well.” left out

Human 4-1BB His, sequence (Q07011 24-186 limits assumed): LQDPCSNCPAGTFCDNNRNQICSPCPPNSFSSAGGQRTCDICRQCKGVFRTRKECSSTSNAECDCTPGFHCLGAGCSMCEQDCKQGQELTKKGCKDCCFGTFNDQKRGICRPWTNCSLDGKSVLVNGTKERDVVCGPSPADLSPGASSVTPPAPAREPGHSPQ

EC50 (read off the curve) (Human 4-1BB His): ~0.09 µg/mL | EC50 (read off the curve) (Human-TNFR2-His): ~0.05 µg/mL
B1: Antibody O6 (bispecific antibody, IgG1)
chain: EVQLVESGGGLVQPGGSLRLSCAASGSRLDYYAVAWFRQAPGKEREEVSCITYSGGSTNYAESVKGRFTISRDNSKNTLYLQMNSLRAEDTAVYYCTTEPYGSSCPLSGYDTWGQGTLVTVSS[… human IgG1 Fc …]GGGGSGGGGSGGGGSGGGGSQVQLQESGPGLVKPSETLSLTCTVSGSSLTSYGVHWVRQPPGKGLEGLGVIWPGGSTNYNSALMSRVTISKDNSKSQVSLKMSSLTAADTAVYYCARVTGTWYFDVWGQGTTVTVSSSPNSASHSGSAPQTSSAPGSQDIQMTQSPSSLSASLGDRVTISCSASQGISNYLNWYQQKPDGTVKLLIYYTSTLHSGVPSRFSGSGSGTDYTLTISSLQPEDIATYYCQQYSKLPWTFGGGTKLEIK
notes: IgG1 subtype; two peptide chains

binding result (Human 4-1BB His): binds | EC50 (read off the curve) (Human-TNFR2-His): ~0.04 µg/mL
B2: Antibody O5 (bispecific antibody, IgG1)
chain: EVQLVESGGGLVQPGGSLRLSCAASGSRLDYYAVAWFRQAPGKEREEVSCITYSGGSTNYAESVKGRFTISRDNSKNTLYLQMNSLRAEDTAVYYCTTEPYGSSCPLSGYDTWGQGTLVTVSS[… human IgG1 Fc …]GGGGSGGGGSGGGGSGGGGSQVQLQESGPGLVKPSETLSLTCTVSGSSLTSYGVHWVRQPPGKGLEGLGVIWPGGSTNYNSALMSRVTISKDNSKSQVSLKMSSLTAADTAVYYCARVTGTWYFDVWGQGTTVTVSSGGGGSGGGGSGGGGSDIQMTQSPSSLSASLGDRVTISCSASQGISNYLNWYQQKPDGTVKLLIYYTSTLHSGVPSRFSGSGSGTDYTLTISSLQPEDIATYYCQQYSKLPWTFGGGTKLEIK
notes: as for B1

EC50 (read off the curve) (Human 4-1BB His): ~0.008 µg/mL | EC50 (read off the curve) (Human-TNFR2-His): ~0.02 µg/mL
B3: Antibody O8 (bispecific antibody, IgG1)
chain: EVQLVESGGGLVQPGGSLRLSCAASGSRLDYYAVAWFRQAPGKEREEVSCITYSGGSTNYAESVKGRFTISRDNSKNTLYLQMNSLRAEDTAVYYCTTEPYGSSCPLSGYDTWGQGTLVTVSS[… human IgG1 Fc …]GGGGSGGGGSGGGGSGGGGSQVQLQESGPGLVKPSETLSLTCTVSGSSLTSYGVHWVRQPPGKCLEGLGVIWPGGSTNYNSALMSRVTISKDNSKSQVSLKMSSLTAADTAVYYCARVTGTWYFDVWGQGTTVTVSSGGGGSGGGGSGGGGSGGGGSDIQMTQSPSSLSASLGDRVTISCSASQGISNYLNWYQQKPDGTVKLLIYYTSTLHSGVPSRFSGSGSGTDYTLTISSLQPEDIATYYCQQYSKLPWTFGCGTKLEIK
notes: IgG1 subtype; two peptide chains; cysteine introduced in VH(4-1BB) and VL(4-1BB)

binding result (Human 4-1BB His): binds | EC50 (read off the curve) (Human-TNFR2-His): ~0.03 µg/mL
B4: Antibody O7 (bispecific antibody, IgG1)
chain: EVQLVESGGGLVQPGGSLRLSCAASGSRLDYYAVAWFRQAPGKEREEVSCITYSGGSTNYAESVKGRFTISRDNSKNTLYLQMNSLRAEDTAVYYCTTEPYGSSCPLSGYDTWGQGTLVTVSS[… human IgG1 Fc …]GGGGSGGGGSGGGGSGGGGSQVQLQESGPGLVKPSETLSLTCTVSGSSLTSYGVHWVRQPPGKGLEGLGVIWPGGSTNYNSALMSRVTISKDNSKSQVSLKMSSLTAADTAVYYCARVTGTWYFDVWGQGTTVTVSSGGGSAAADIQMTQSPSSLSASLGDRVTISCSASQGISNYLNWYQQKPDGTVKLLIYYTSTLHSGVPSRFSGSGSGTDYTLTISSLQPEDIATYYCQQYSKLPWTFGGGTKLEIK
notes: as for B1
